# Experimental data taken from PMC4336329 (PLoS ONE, 2015).
# Among all 310,000 compounds or so, about 2,200 (0.71%) showed an effect of 50% or more. The effect is printed as a negative number. This is one part of the list.
# Target: human ether-à-go-go-related gene (hERG) potassium channel (human, UniProt Q12809)
# Assay: primary screen, population patch clamp on CHO cells stably expressing hERG
# Sequence of human ether-à-go-go-related gene (hERG) potassium channel (Q12809 whole entry, looked up): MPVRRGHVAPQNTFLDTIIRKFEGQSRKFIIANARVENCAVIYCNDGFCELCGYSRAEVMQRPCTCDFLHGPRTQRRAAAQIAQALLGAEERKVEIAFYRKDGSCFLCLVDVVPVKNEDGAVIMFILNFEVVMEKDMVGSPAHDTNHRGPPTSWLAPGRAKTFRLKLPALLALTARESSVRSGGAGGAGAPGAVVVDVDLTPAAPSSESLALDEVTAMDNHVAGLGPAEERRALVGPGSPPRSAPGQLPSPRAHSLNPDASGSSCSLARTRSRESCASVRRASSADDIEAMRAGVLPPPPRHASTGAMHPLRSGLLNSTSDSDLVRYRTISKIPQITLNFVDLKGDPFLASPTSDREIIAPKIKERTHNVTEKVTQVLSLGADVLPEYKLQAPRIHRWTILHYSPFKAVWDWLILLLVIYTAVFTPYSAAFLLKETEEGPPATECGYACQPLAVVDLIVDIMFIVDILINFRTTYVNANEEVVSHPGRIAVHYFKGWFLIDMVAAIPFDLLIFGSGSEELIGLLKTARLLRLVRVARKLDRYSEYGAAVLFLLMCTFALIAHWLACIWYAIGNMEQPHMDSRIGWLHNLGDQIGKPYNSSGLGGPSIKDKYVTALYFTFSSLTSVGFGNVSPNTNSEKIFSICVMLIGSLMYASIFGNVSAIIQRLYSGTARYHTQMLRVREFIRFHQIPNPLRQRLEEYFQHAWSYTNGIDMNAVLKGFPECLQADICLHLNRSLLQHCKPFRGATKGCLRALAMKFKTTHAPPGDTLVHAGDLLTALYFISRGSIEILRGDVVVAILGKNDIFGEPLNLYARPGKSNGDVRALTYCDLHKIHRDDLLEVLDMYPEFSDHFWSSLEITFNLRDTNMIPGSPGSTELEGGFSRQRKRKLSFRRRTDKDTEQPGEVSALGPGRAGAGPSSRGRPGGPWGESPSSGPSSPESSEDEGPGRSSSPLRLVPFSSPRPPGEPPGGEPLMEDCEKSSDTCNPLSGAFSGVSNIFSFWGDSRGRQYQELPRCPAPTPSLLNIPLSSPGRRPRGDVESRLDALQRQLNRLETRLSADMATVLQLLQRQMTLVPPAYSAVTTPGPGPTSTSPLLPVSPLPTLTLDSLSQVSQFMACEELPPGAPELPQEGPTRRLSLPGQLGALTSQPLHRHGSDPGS
row,SMILES,"hERG current change (%, negative = inhibition) at 1uM"
1,Cc1ccc(C(=O)CSc2nnc(N)s2)c(C)c1,0.686%
2,O=C(Nc1ccc(Oc2cccnc2)cc1)c1ccccc1Cl,1.83%
3,CCC(=NCc1ccco1)c1c(O)n(-c2ccccc2)c(=O)[nH]c1=O,15.5%
4,CN(C(=O)COC(=O)CN1C(=O)c2ccccc2C1=O)c1c(N)n(Cc2ccccc2)c(=O)[nH]c1=O,4.14%
5,O=C(Nc1nnc(-c2ccco2)o1)c1ccc(S(=O)(=O)N2CCOCC2)cc1,15.2%
6,CCCCNC(=S)NNC(=O)c1cc(C2CC2)nc2ccccc12,13.2%
7,Clc1ccc(CSc2ccc(-c3cccnc3)nn2)cc1,3.5%
8,C#CCCOC(=O)N1C2=NC(C(=O)OC)=C(C(=O)OC)[C@@H]3N(C)c4ccccc4[C@]23C[C@H]1C(=O)OC,7.39%
9,C=CCN(c1ccccc1)S(=O)(=O)c1cccc2cccnc12,13.6%
10,CN(C)/C=C1\C(=O)NN=C1c1ccccc1,0.298%
11,C/C(=C1/C(=O)N(c2ccc([N+](=O)[O-])cc2)N=C1c1ccccc1)N(C)C,-5.78%
12,CC(Oc1cc2oc(=O)c3c(c2cc1Cl)CCC3)C(=O)NC1CC(C)(C)NC(C)(C)C1 (stereo not drawn),12.7%
13,COc1cc(C(=O)NCc2cn3cccc(C)c3n2)cc(OC)c1OC,4.19%
14,C=CCn1c(O)c(C(CC)=NC(C)c2ccccc2)c(=O)[nH]c1=O (stereo not drawn),-4.33%
15,O=C(O)c1ccc2cccnc2n1,21.7%
16,COc1ccccc1CN1CN(S(=O)(=O)c2ccccc2)c2nc3ccccc3nc21,11%
17,CCOC(=O)C1(Cc2cccc(OC)c2)CCCN(Cc2c(C)nn(C(C)C)c2C)C1 (stereo not drawn),4.85%
18,O=C(CN1C(=O)c2ccc([N+](=O)[O-])cc2C1=O)Nc1cc(S(=O)(=O)N2CCOCC2)ccc1Cl,-0.522%
19,C=CCc1cccc2cc(C(=O)NNC(=O)c3ccncc3)c(=O)oc12,18.7%
20,O=C(CN1CCOc2ccccc21)NC1CCCCCCC1,3.04%
21,COc1ccc(C(=O)Nc2cc(-c3ccccc3)nn2-c2ccccc2F)cc1,-1.84%
22,CCOC(=O)C(CC)Sc1ccc2nnc(CCNS(=O)(=O)c3ccccc3)n2n1 (stereo not drawn),3.33%

row,SMILES,"hERG current change (%, negative = inhibition) at 1uM"
1,CC(=O)c1ccc(NC(=S)N2C(C)CCCC2C)cc1 (stereo not drawn),7.22%
2,CCC(c1ccc(C)cc1)N1C(=O)C2C3CCC(O3)C2C1=O (stereo not drawn),12.2%
3,CCOC(=O)c1c(NC(=O)COC(=O)Cn2cnc3c2c(=O)n(C)c(=O)n3C)sc(C)c1CC,6.5%
4,Nc1ccc2nc(-c3cccs3)[nH]c2c1,14.4%
5,CC(Sc1nc2ccccc2c(=O)n1Cc1ccco1)C(=O)c1ccccc1 (stereo not drawn),-19.5%
6,O=C1CC(N2CCN(c3ccccc3O)CC2)C(=O)N1Cc1ccccc1 (stereo not drawn),15.3%
7,O=C(CN(C(=O)c1csnn1)c1ccccc1Cl)NCCc1ccccc1,10.8%
8,CCOc1ccc(N2C(=O)C3C(c4ccc(O)cc4)NC(CCSC)(C(=O)OC)C3C2=O)cc1 (stereo not drawn),4.05%
9,CC1CCCCN1C(C(=O)O)c1ccccc1.Cl (stereo not drawn),17.1%
10,COc1cc(/C=N/NS(=O)(=O)c2ccc(C)c([N+](=O)[O-])c2)ccc1O,11.9%
11,Cc1cccc(-c2nnc3n2N=C(c2ccc(Br)cc2)CS3)c1,-18.7%
12,COc1ccccc1OCC(=O)Nc1ccccc1C(=O)N1CCCC1,5.81%
13,CNC(=O)CSc1nnc(-c2cnccn2)n1C,11%
14,O=C(Cn1c(COc2ccccc2)nc2ccccc21)Nc1cccc(Cl)c1,10.8%
15,O=C(NCc1n[nH]c(=S)n1-c1ccc(F)cc1)c1ccco1,-0.204%
16,O=S(=O)(c1ccc(Cl)cc1)N1CCC(O)(c2cccnc2)CC1,5.94%
17,CC(C)C(OC(=O)CN1C(=O)c2ccccc2C1=O)C(=O)NC1CCCC1 (stereo not drawn),19.6%
18,Cc1ccc(Oc2ccc(NC(=O)CCC(=O)OCC(=O)c3cccs3)cc2)cc1C,7.01%
19,CCOC(=O)CNC(=O)N1CCCC(C(=O)c2cc(C)c(OC)c(C)c2)C1 (stereo not drawn),14.4%
20,Cc1ccc(-c2c(CC(=O)O)c(C)nc3sc4c(c23)CCCC4)cc1.Cl,13.6%
21,COc1ccc(-n2c(=S)[nH]c3cc(C(=O)NCCCN4CCCC4=O)ccc3c2=O)cc1OC,15.3%
22,CC(Sc1nnc(COc2ccc([N+](=O)[O-])cc2)n1-c1ccccc1)C(=O)O (stereo not drawn),6.23%

row,SMILES,"hERG current change (%, negative = inhibition) at 1uM"
1,COc1c(C)cc(C(=O)C2CCCN(C(=O)c3ccc4cc[nH]c4c3)C2)cc1C (stereo not drawn),12.5%
2,Cc1csc2ncc(C(=O)NCc3ccccc3Cl)c(=O)n12,7.61%
3,COc1ccccc1OCc1ccc(C(=O)NCc2cccnc2)o1,7.68%
4,O=C(CC1CC2CCC1C2)OCC(=O)c1c[nH]c2ccccc12 (stereo not drawn),10.4%
5,O=C(NCC(c1cccs1)N1CCc2ccccc21)c1ccccc1 (stereo not drawn),4.64%
6,COc1ccc(OC)c(NC(=O)Cn2cc(C#N)c3ccccc32)c1,9.76%
7,CCOC(=O)c1c(N)sc(C(=O)Nc2ccccc2F)c1C,21%
8,Cc1oc(-c2ccccc2Cl)nc1CN1CCCCC1c1cccnc1 (stereo not drawn),3.12%
9,CN(C)/C=C(\C#N)C(=O)N/N=C/c1ccccc1,5.17%
10,Cc1ccc(NC(=O)c2sc3nc(C)cc(C)c3c2N)cc1,19.3%
11,O=C(Nc1ccc(Br)cn1)c1cccc2c1-c1ccccc1C2=O,8.1%
12,CCC1CCCCN1C(=O)COC(=O)c1n[nH]c2ccccc12 (stereo not drawn),-5.75%
13,Cc1ccc(/C=C/c2nc3ccccc3[nH]2)o1,10.5%
14,COc1cc(OC)c(C2=NOC(C(=O)Nc3c(C)nn(CC(=O)N4CCCC4)c3C)C2)cc1Cl (stereo not drawn),3.25%
15,CCCc1cc(=O)[nH]c(SCC(=O)Nc2sc3c(c2C#N)CCCC3)n1,4.53%
16,COc1ccc(N(CC(O)Cn2c(C)nc3ccccc32)S(=O)(=O)c2ccccc2)cc1 (stereo not drawn),2.4%
17,CCOC(=O)c1ccc(NC(=O)CN2C(=O)CCC2=O)cc1,11.5%
18,Cc1cc(NC(=O)c2ccc(F)cc2)n(C)n1,10%
19,O=C(Nc1ccccc1)c1ccccc1OCc1ccc(F)cc1,15.8%
20,OC1CCN(c2cc(-c3ccccc3)nc3cc(-c4ccc(F)cc4)nn23)CC1,7.59%
21,COc1ccc(NC(=O)CSCC(=O)NCc2cccc(C(F)(F)F)c2)cc1,9.74%
22,Cc1ccc(-n2c(C)cc(C=C3C(=O)CC(C)(C)CC3=O)c2C)cc1,3.36%

row,SMILES,"hERG current change (%, negative = inhibition) at 1uM"
1,O=C(NCCCN1CCCC1=O)Nc1ccc(Cl)cc1,4.59%
2,Cc1ccc(-n2ncc3c(N4CCN(c5ccc(F)cc5)CC4)ncnc32)c(C)c1,15.1%
3,Cc1ccc(NC(=S)NNC(=S)NCc2ccccc2)cc1,11.2%
4,CCN1C(=O)[C@H]2[C@@H](c3ccc(-c4cc(C(C)=O)cs4)cc3)N3CCC[C@@]3(C(=O)OC)[C@H]2C1=O.O=C(O)C(F)(F)F,8.31%
5,COc1ccc(Cl)cc1NC(=O)CCn1c(=O)oc2ccccc21,9.53%
6,Cc1sc2nc(SCC(=O)N(C)Cc3ccccc3)n(-c3ccccc3)c(=O)c2c1C,13.1%
7,Cc1cc(=O)oc2cc(NC(=O)CC3(CC(=O)O)CCCC3)ccc12,7.35%
8,CCOC(=O)c1c(NC(=O)COC(=O)Cc2n[nH]c(=O)c3ccccc23)sc(C(=O)N(C)C)c1C,9.98%
9,CC1(C)O[C@@H]2[C@H](O1)[C@@H](CO)O[C@H]2n1c(N2CCCCC2)nc2c(N)ncnc21,5.18%
10,Cc1cccc(-n2c(O)c(/C=N/NC(=O)c3ccccc3Cl)c3ccccc3c2=O)n1,9.11%
11,CCOc1cc(N2CCOCC2)c(OCC)cc1NC(=O)COC(=O)c1cc2ccccc2cc1O,4.74%
12,Nc1ccc(S(=O)(=O)NC2=NCCCCC2)cc1N,12.2%
13,C(=N\n1cnnc1)/c1cccc(Oc2ccccc2)c1,10.7%
14,Cc1ccc(C(=O)Nc2ccc(F)cc2)cc1NC1=NC2CS(=O)(=O)CC2S1 (stereo not drawn),10.6%
15,COn1c(-c2ccccc2)c(C=O)c2ccccc21,12.2%
16,Cc1cc(F)ccc1NC(=O)c1cc(S(=O)(=O)N2CCOCC2)cn1C,-5.95%
17,COCC(=O)N1CCC(Oc2ccc(C(=O)NCc3cc(C)n(C)n3)cc2)CC1,9.09%
18,CCNC(=O)/C(C#N)=C/c1c(N2CCN(c3ccccc3)CC2)nc2ccccn2c1=O,-4.54%
19,O=C(COC(=O)c1ccccc1Cl)NCCC1=CCCCC1,9.59%
20,COc1ccc(C(=O)NN=C2CCCC2)cc1,3.9%
21,O=C(O)C1CCCCN1C(=O)c1cc2c(s1)CCCCC2 (stereo not drawn),4.32%
